PubChem BioAssay (NCATS)
Where “and” joins values, the source holds several entries; their conditions need not be identical. Equal entries are not always repeated. This is one part of the list. Further columns of the screen follow, without active or inactive calls. Most of these compounds were active or inconclusive in the main read-out, so they are no random draw.

Experiment: qHTS Assay for Lipid Storage Modulators (AID 1519)
Settings: Drosophila S3 cells, BODIPY lipid droplet/cell ratio, laser cytometry; measured here: cell count channel max response; cells loaded with oleic acid
Method in brief: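 Cells seeded at 5,000 per well were treated with compounds over a concentration series and loaded with oleic acid (400 uM, as added). Lipid droplet fluorescence (488 nm excitation, 500-530 nm channel) was read by laser-scanning cytometry and normalized to 20 uM Triacsin C.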

Row | SMILES | max response
1 | Cc1cnc(CNc2cc(-c3cccnc3)ncn2)cn1 | 39.2%
2 | CS(=O)(=O)N1CCC2(CC1)CN(c1ncccn1)C2 | 27.9%
3 | Cc1noc(C)c1-c1ccc2ncnc(Nc3ccccc3)c2c1 | 32.7%
4 | O=c1c(-c2cccc(Cl)c2)nc2cncnc2n1Cc1ccc(F)cc1 | 10.9%
5 | COc1ccc(CNc2ncncc2-c2cccc(C#N)c2)c(OC)c1 | 29.4%
6 | O=S(=O)(c1ccccc1)N1CCC2(CCN(c3ncccn3)CC2)CC1 | 22.6%
7 | CCN(Cc1ccncc1)C(=O)[C@@H](CO)c1ccccc1 | 51.1%
8 | COc1c2ccoc2nc2c(OC)c(OCC(O)C(C)(C)O)ccc12 (stereo not given) | 137%
9 | N#CCCn1c(=O)c(CCc2ccccc2)nc2cnc(Oc3ccccc3)nc21 | 27.4%
10 | COc1ccc(Cl)cc1N=Nc1ncc[nH]1 | 113%
11 | O=c1c(-c2cccc(Cl)c2)nc2cncnc2n1-c1ccccc1 | 35.8%
12 | CO/N=C(/C(=O)NC1C(=O)N2C(C(=O)O)=C(COC(N)=O)CSC12)c1ccco1 (stereo not given) | 26.2%
13 | COc1ccc(Oc2ncc3nc(C)c(=O)n(Cc4cccs4)c3n2)cc1 | 3.32%
14 | Cc1nc2cnc(N(C)C)nc2n(CCc2ccccc2)c1=O | 19.2%
15 | COc1ccc2[nH]cc(CCNc3ncncc3-c3ccccc3C(F)(F)F)c2c1 | 18.5%
16 | COc1ccccc1CCn1c(=O)c(C)nc2cncnc21 | 36.6%
17 | COc1ccc(CNc2nc(-c3c(C)noc3C)nc3ccccc23)c(OC)c1 | 4.79%
18 | COc1ccc2[nH]cc(CCNc3nc(-c4cccc(C#N)c4)nc4ccccc34)c2c1 | 13.9%
19 | Cc1ccccc1-c1cc(N(C)Cc2ccco2)ncn1 | 36.7%
20 | CCCCN1CCC[C@@H]1CNC(=O)c1cc(C#N)c2ccccc2c1OC | 110%

Row | SMILES | max response
21 | COC1(C2=NCCN2)COc2ccccc2O1 (stereo not given) | -6.96%
22 | CN(CC[C@@H](Oc1ccc(-c2ccccc2)cc1)c1ccc(F)cc1)CC(=O)O | 72.4%
23 | Cc1noc(C)c1-c1nc(NCCN2CCOCC2)c2ccccc2n1 | 31.8%
24 | Cc1cnc(CNc2ncnc3ccc(-c4ccc(C(=O)N(C)C)cc4)cc23)cn1 | 45.3%
25 | Cc1cnc(CNc2ncncc2-c2ccc3c(c2)OCO3)cn1 | 43.4%
26 | COc1cc(/C=C/C(=O)N2CCC=CC2=O)cc(OC)c1OC | -31.6%
27 | CC1(C)CC(=O)C([C@H]2C3=C(CC(C)(C)CC3=O)Oc3ccccc32)C(=O)C1 | 52.5%
28 | CCCCCCc1c(C[C@H](N)C(=O)O)o[nH]c1=O | 26.5% and -0.198%
29 | COC(=O)[C@H]1[C@H]2CC3c4[nH]c5ccccc5c4CCN3C[C@@H]2CC[C@@H]1O (stereo not given in full) | 36.1%
30 | CN(C)c1ccc(-c2nc(NCCc3cnc[nH]3)c3ccccc3n2)cc1 | 23.5%
31 | CN(C)c1ncc2nc(-c3cccs3)c(=O)n(CCc3ccccc3)c2n1 | 33.5%
32 | CN(C)c1ncc2nc(-c3cccs3)c(=O)n(-c3ccccc3)c2n1 | 99%
33 | C[C@H]1C=C2C=C[C@H](C)[C@H](CC[C@@H]3C[C@@H](O)CC(=O)O3)[C@H]2[C@@H](OC(=O)[C@@H](C)CCO)C1 | 48.8%
34 | CCCN(CCC)C(=O)C(CCC(=O)O)NC(=O)c1ccccc1 (stereo not given) | 33.3%
35 | O=c1c(CCc2ccccc2)nc2cnc(N3CCOCC3)nc2n1Cc1ccc(F)cc1 | 35.1%
36 | COc1cccc(-c2nccc(NCc3cnc(C)cn3)n2)c1 | 45.5%
37 | COCCn1c(=O)c(CCc2ccccc2)nc2cnc(N3CCOCC3)nc21 | 33.5%
38 | c1ccc(CNc2ncnc3ccc(-c4ccoc4)cc23)cc1 | 32.1%
39 | CC#CCOC(=O)c1c(C)nc2sc3c(c2c1N)CC[C@@H](O)C3 | 109%
40 | CC(N)(C(=O)O)c1ccc(C(=O)O)cc1 (stereo not given) | 38%
